Results on six molecules are retold here after paper PMC12136788.

Sequences and labels used below:
B1: chr3:33863462:33863463:+_ENSG00000170248_ENST00000307296|hu_mus|motif|central (ssRNA)
RNA: GGGAGUUCUACAGUCCGACGAUCUGCAAUCUGGCUAGCUAAGGCAGCACAAUUGAACAACACACAGCUCUUUUCAUAUCCGGAGCUUGCAAGAGCCAAUUUUACAGACCCUCCAAAAAGGGAACCUUUAUCAAAAGCAUCCUUCAACAGAGGAUUGAGCAUCA
B2: chr9:123526118:123526119:-_ENSG00000119402_ENST00000608872|hu_hu|FALSE|FALSE (ssRNA)
RNA: GGGAGUUCUACAGUCCGACGAUCGAGUUCCAGGGUAAGAGGCCCGGUCUCUAACCUUCCAGCUCACUGCUCUUUUCUGCUAUACCAGGGCACCGCUGUGCAGUCAUCCAGGCUGCCGGGGACUAGCUUCCCCGACAUGGCAACCAACAGAGGAUUGAGCAUCA
B3: chr8:54879716:54879717:-_ENSG00000187735_ENST00000521604|hu_hu|motif|central (ssRNA)
RNA: GGGAGUUCUACAGUCCGACGAUCCAAUCUCACUCAUGACAGAAAAAGUCAGCAAAUAAGACUUGGGACAAAAUUAUUUUCGGUCAGUCUCCACAUGGAAAGACCACAGCUUUAAUGAAUUAUACAAUCCUUAAGAUUAAUCCUCAACAGAGGAUUGAGCAUCA
B4: chr11:99071305:99071306:-_ENSMUSG00000037935_ENSMUST00000103133|mus_mus|FALSE|FALSE (ssRNA)
RNA: GGGAGUUCUACAGUCCGACGAUCAAGACCUUCAUGUUGUAUCAACGGAAAAGUAAAUAAUUAAUACACAGACCACAUAACACCAUUAAAACCAAAAAAAAAACCACAUUUUUUUUUCAUUUAAAAAAGUUUUAGGUCACAUAACAACAGAGGAUUGAGCAUCA
B5: 69695938_69699410_2878_CDS_ENSG00000148634_ENST00000373700|human|control|control (ssRNA)
RNA: GGGAGUUCUACAGUCCGACGAUCACCAUUUAGAACCAGCUCUUUCACUUCUGUUGCACCAAAGUUUUCAACUGUGAUCGUAAAAUUAAGACAAAAUGUUUCCUCUAUGUCAUCUUCUGGAUAAUCCAGUAACUGUUGCAUGCUCAACAGAGGAUUGAGCAUCA
B6: chr11:102150864:102150865:-_ENSMUSG00000059995_ENSMUST00000137387|mus_hu|FALSE|FALSE (ssRNA)
RNA: GGGAGUUCUACAGUCCGACGAUCAAUUAGUACAGAACCCCCCCACACACACUCAGACACAGGAUACAGGGUGGACGACACCUAGCCGGGGUGGGAAGGAUGGGAAUUGAAACCCACACAGCCUGCUGUUAGAGGGAGGGGAGUCAACAGAGGAUUGAGCAUCA

Some of the results follow.

This test concerns the target T1, UNK ZnF1-3 (human, UniProt Q9C0B0 31-174).
T1 sequence: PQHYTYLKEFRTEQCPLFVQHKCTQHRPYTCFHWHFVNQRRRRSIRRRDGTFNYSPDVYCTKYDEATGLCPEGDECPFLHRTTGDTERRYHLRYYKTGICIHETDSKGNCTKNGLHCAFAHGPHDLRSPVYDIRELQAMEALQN
Put plainly: nsRBNS (natural sequence RNA bind-n-seq); RBNS binding buffer (assumed for nsRBNS): 25 mM Tris pH 7.5, 150 mM KCl, 3 mM MgCl2, 0.01% Triton X-100, 500 ug/ml BSA, 20 U/ml SUPERase-In, 4 C; UNK is unkempt and MSI1 is Musashi-1; names of the RNAs are library labels; protein concentration not given here; high values mean tight binding.
Turning to B1, the binding signal was 0.97 enrichment R.
As to B2, the binding signal amounted to 0.696 enrichment R.
The figure for B3 is 1 enrichment R; for B4 it is 1.01 enrichment R.
With B5 the figure was 1.15 enrichment R; with B6, 1.95 enrichment R.
